Assay results taken from PubChem BioAssay AID743279 (National Center for Advancing Translational Sciences (NCATS), 2014).
Screen size: about 360,000 compounds; about 17,000 (4.7%) were called active. The inconclusive results got no clear call from the source; some entries with a clear call stand among them for comparison. No stated cut-off is given here; in the data, active means activity change below about -50%; inconclusive means mostly about -30% to -49%; inactive means weaker than that.
On the % scale 0 is the no-effect control and ±100 the full control effect.

Experiment: qHTS for Inhibitors of Inflammasome Signaling: IL-1-beta AlphaLISA Primary Screen
Conditions: THP-1 LPS/ATP IL-1B secretion, 16 h; at 57.5 µM, hits give low values
Procedure, shortened: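 THP-1 cells pretreated 1 hr with compounds (up to 57.5 uM final), then stimulated with LPS (250 ng/mL final) plus ATP (1.25 mM final); secreted IL-1B measured by AlphaLISA after 16 hr, decreased signal indicating inhibition.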
In the case of `CCOc1cc(NC(=O)C2CC2)c(OCC)cc1NC(=O)c1ccccc1OCC`, the activity change is reported as inconclusive: -41.1%.
For `O=C(/C=C/Sc1ccccc1)c1ccccc1`, the activity change was active: -104%.
With `O=c1[nH]cccc1-c1nc2ccccc2n1Cc1ccccc1F` the activity change was inactive: 2.82%.
In the case of `CN1CCN(C2=NC(=O)/C(=C/c3cn[nH]c3-c3ccccc3)S2)CC1`, the activity change is reported as inconclusive: -44.8%.
In the case of `C(=C\c1ccccc1)/CN1CCN(C(c2cc3ccccc3o2)c2nnnn2C2CCCCC2)CC1` (centres undefined), the activity change is reported as inconclusive: -30.2%.
With `N=c1ccn(Cc2ccc(Cl)cc2Cl)cc1` the activity change was inconclusive: -35.5%.
With `Cc1cnc(C(=O)OCC(=O)Nc2oc(-c3ccccc3)c(-c3ccccc3)c2C#N)cn1` the activity change was inconclusive: -36.3%.
In the case of `COc1ccc(C2(CNC(=O)C(c3ccccc3)c3ccccc3)CCOCC2)cc1OC`, the activity change is reported as inconclusive: -32%.
For `COc1ccc(C(C(=O)NC(C)(C)C)N(CCC(C)C)C(=O)CCC(=O)Nc2cc(C)on2)cc1` (centres undefined), the activity change was inconclusive: -32.3%.
In the case of `COC(=O)c1cccc(NC(=O)CSc2nc3cccnc3n2C)c1`, the activity change is reported as inconclusive: -37.8%.
With `COc1ccc(-c2nc3ccc(Br)cn3c2Cc2cccc(Cl)c2)cc1OC` the activity change was inconclusive: -39.2%.
With `CCOC(=O)C1(Cc2ccccc2)CCN(Cc2ccc3cc(NC(C)=O)ccc3n2)CC1` the activity change was inconclusive: -32.9%.
In the case of `COc1ccc(C(C)=NOC(=O)c2c(-c3ccccc3Cl)noc2C)cc1CN1CCOCC1`, the activity change is reported as inconclusive: -44.5%.
In the case of `O=C(CN(C(=O)c1ccc(Cl)cc1)C1CCCCC1)Nc1ccc(Cl)c([N+](=O)[O-])c1`, the activity change is reported as inconclusive: -39.1%.
For `COc1ccc(NC(=S)Nc2ccc3snnc3c2)cc1`, the activity change was inconclusive: -35.9%.
For `COc1ccc(-c2sc3cc(OC)ccc3c2-c2ccc(OCCN3CCCCC3)cc2)cc1`, the activity change was inconclusive: -42.1%.
For `O=C(N/N=C\c1ccc(CN(Cc2ccc(Cl)cc2)S(=O)(=O)c2ccccc2)o1)C(=O)Nc1ccc(F)cc1`, the activity change was inconclusive: -41.2%.
For `CC(C)(C)c1ccc(C(=O)N2CCC(C(=O)c3ccccc3)CC2)cc1`, the activity change was active: -75.3%.
In the case of `CCc1ccc(-c2nc(CS(=O)CC(=O)NCCN3CCCCCC3)c(C)o2)cc1` (centres undefined), the activity change is reported as active: -55.5%.
With `COc1ccccc1-c1cc(C(=O)NC2CCN(C)CC2)c2ccc(Cl)c(C)c2n1` the activity change was inconclusive: -46.4%.
For `Clc1ccc(C(c2nnnn2C2CCCC2)N2CCSCC2)cc1` (centres undefined), the activity change was active: -62.5%.
In the case of `CCOC(=O)Cn1nnnc1CN(Cc1ccccc1)Cc1cc2cc(CC)ccc2[nH]c1=O`, the activity change is reported as active: -91.4%.
With `Cc1ccc(C)c(C(O)c2ncc(-c3ccc4ccccc4c3)[nH]2)c1` (centres undefined) the activity change was inactive: 19.2%.
With `Cc1cc(C(=O)CCC(=O)Nc2ccc(C(N)=O)cc2)c(C)s1` the activity change was inconclusive: -32.3%.
For `Fc1cccc(NC(=S)NC2CCCCCCC2)c1`, the activity change was inconclusive: -45.6%.
For `COCCc1ncc(CN2CCCC(C(=O)Nc3cccc(-c4cccc(C)c4)c3)C2)cn1` (centres undefined), the activity change was inconclusive: -35.1%.
For `COc1ccc(C(c2nnnn2C2CCCC2)N2CCN(C/C=C/c3ccccc3)CC2)cc1` (centres undefined), the activity change was inconclusive: -39%.
With `Cc1ccc(Nc2nc(N)nc(CN3CCN(Cc4ccc5c(c4)OCO5)CC3)n2)c(C)c1` the activity change was inactive: -22.8%.
With `CCN(CC)S(=O)(=O)c1ccc(N2CCOCC2)c(NC(=O)c2ccc(=O)n(C)n2)c1` the activity change was inactive: 8.34%.
With `COC(=O)CCc1c(C)c(C(=O)c2ccco2)c2ccccn12` the activity change was inconclusive: -33.6%.
For `CC1CCCCC1NC(=O)CN1CCN(S(=O)(=O)c2ccc(Br)s2)CC1` (centres undefined), the activity change was inactive: -18.5%.
With `CC(C)OCCCN1CC(=O)N2C(c3ccccc3)c3[nH]c4ccccc4c3C[C@H]2C1=O` (some centres undefined) the activity change was active: -62.4%.
In the case of `CC(=O)c1ccc(N=Cc2c(O)n(-c3cc(Cl)ccc3N3CCOCC3)c(=O)c3ccccc23)cc1`, the activity change is reported as inconclusive: -39.6%.
For `CC(C)OC(=O)c1c(NC(=O)C2CC=CCC2C(=O)O)sc2c1CCCCC2` (centres undefined), the activity change was inconclusive: -36.9%.
With `O=C(c1ccc([N+](=O)[O-])s1)N1CCN(c2ccc(C(F)(F)F)cn2)CC1` the activity change was inactive: 15.2%.
In the case of `Cc1ccc(-c2nc(SCC(=O)NCC3CCCO3)c(-c3ccccc3)[nH]2)cc1` (centres undefined), the activity change is reported as inactive: -19.3%.
For `COc1ccc(-c2nc(C(=O)NCC3CCCO3)cc3c2[nH]c2ccccc23)cc1` (centres undefined), the activity change was inconclusive: -41.3%.
For `COc1ccc(NC(=O)C(OC(=O)c2ccc([N+](=O)[O-])o2)c2ccccc2)cc1Cl` (centres undefined), the activity change was inconclusive: -34.9%.
In the case of `O=C(c1ccc([N+](=O)[O-])cc1)c1cc2ccc(O)cc2oc1=O`, the activity change is reported as inconclusive: -38.3%.
In the case of `C=CCn1c(SCC(=O)NCC(c2ccccc2)N(C)C)nc2sc3c(c2c1=O)CCC3` (centres undefined), the activity change is reported as inconclusive: -46.5%.
For `COc1cccc(COc2ccccc2C2Nc3ccc(Br)cc3C(=O)N2NC(=O)c2ccncc2)c1` (centres undefined), the activity change was inconclusive: -30.5%.
For `Cc1cc(C)c(S(=O)(=O)/N=C2/C=C(Sc3ncn[nH]3)C(=O)c3ccccc32)cc1C`, the activity change was active: -88.5%.
In the case of `C=CCn1c2ccccc2c(=O)c2cc(C#Cc3cc(OC)cc(OC)c3)ccc21`, the activity change is reported as inactive: 0.41%.
In the case of `NC(=O)Cc1c[nH]c2cccc(O)c12`, the activity change is reported as inconclusive: -32.4%.
For `COc1ccc(NC(=S)N2CCN(c3ccccc3)CC2)c(OC)c1`, the activity change was inconclusive: -36.5%.
In the case of `Cc1ccc(C(=O)C[n+]2cc(Br)cc(Br)c2)cc1`, the activity change is reported as inconclusive: -42.6%.
In the case of `CN(CC(O)COc1ccc(S(=O)(=O)N2CCOCC2)cc1Cl)C1CCCCC1` (centres undefined), the activity change is reported as inconclusive: -30.2%.
For `CCc1cc(=O)oc2c3c(cc(OCC(=O)N[C@H](C(=O)O)[C@H](C)CC)c12)OC(C)(C)CC3`, the activity change was inactive: 26.5%.
In the case of `CC1CN(S(=O)(=O)c2cccc(-c3cn4ccccc4n3)c2)CC(C)O1` (centres undefined), the activity change is reported as inconclusive: -46.6%.
With `C=Cn1cc[n+](CC(=O)c2ccc(C)cc2)c1` the activity change was inactive: 40.1%.
For `CN(c1ccccc1)S(=O)(=O)c1ccc(Cl)c(C(=O)NCc2ccccc2CN2CCCC2)c1`, the activity change was inconclusive: -35.5%.
For `O=C(Cc1cccs1)N1CCN(c2ccc([N+](=O)[O-])cc2)CC1`, the activity change was inconclusive: -48.3%.
In the case of `COc1ccc(C(=O)NCC2OCCc3ccccc32)cc1OC` (centres undefined), the activity change is reported as inconclusive: -33.6%.
With `COc1ccc(Cc2c(O)nc(SCC(=O)NC(C)(C)C)[nH]c2=O)cc1` the activity change was inactive: 8.26%.
In the case of `O=c1c2c3c(sc2ncn1/N=C/c1ccc(Br)o1)CCCC3`, the activity change is reported as inconclusive: -40.7%.
For `C[C@@H]1CN([C@H](C)CO)C(=O)c2c(c3ccccc3n2C)-c2ccccc2CO[C@H]1CN(C)Cc1ccc(-c2ccccc2)cc1`, the activity change was inconclusive: -35.8%.
With `O=C1N=C(N2CCCC2)S/C1=C\C=C\c1ccccc1` the activity change was inactive: 2.84%.
In the case of `O=C(c1cc(S(=O)(=O)N2CCOCC2)ccc1F)N(CCc1ccccc1)Cc1ccccc1`, the activity change is reported as inconclusive: -49.3%.
With `CC1=CC(C)C2C(=O)N(c3ccccc3)C(=O)C2C1` (centres undefined) the activity change was inconclusive: -30.3%.
With `COCCN1C(=O)CCC1(C)c1nnnn1-c1c(C)cccc1C` (centres undefined) the activity change was inactive: 19.4%.
With `CCc1nnc(NC(=O)C2(C)COC(c3ccc(OC)cc3)OC2)s1` (centres undefined) the activity change was inactive: -5.09%.
In the case of `Cc1ccc(S(=O)(=O)N2CCN(Cc3cccc(F)c3)CC2)cc1`, the activity change is reported as inactive: 2.12%.
For `CCOC(=O)c1c(C)[nH]c2cc(Br)c(O)cc12`, the activity change was inactive: -8.85%.
In the case of `CCc1cccc(CC)c1-n1c(SCC(=O)N2CCc3ccccc3C2)nnc1-c1cccnc1`, the activity change is reported as active: -57.8%.
For `COc1cccc(C(=O)C2CCCN(Cc3cccn3-c3ccccn3)C2)c1` (centres undefined), the activity change was inconclusive: -34.4%.
With `COc1ccc(-c2oc3ncnc(NCCCN(C)C)c3c2-c2ccc(OC)cc2)cc1` the activity change was active: -64.5%.
In the case of `CCOc1cc(/C=N/NC(=O)CN(CCc2ccccc2)S(=O)(=O)c2ccc(NC(C)=O)cc2)ccc1O`, the activity change is reported as inconclusive: -46%.
In the case of `CCc1nc(SCC(=O)Nc2ccccc2OC)c2c(C)c(C)sc2n1`, the activity change is reported as inconclusive: -40.6%.
For `Cc1cc(NC(=O)C2CC2)ccc1NC(=O)c1cccs1`, the activity change was inconclusive: -35.5%.
In the case of `O=C(Nc1ccc(NC(=O)C2CC2)cc1)c1cccs1`, the activity change is reported as inconclusive: -45.7%.
With `CCC1Nc2ncnc(N3CCN(c4ccccc4)CC3)c2N(Cc2ccc(Br)cc2)C1=O` (centres undefined) the activity change was inconclusive: -41.5%.
With `COCCNC(=O)C1(C)CCCN(C(=O)c2ccc3ccccc3c2)C1` (centres undefined) the activity change was inconclusive: -42%.
For `CC12CCCCN1CCCc1c2[nH]c2ccccc12` (centres undefined), the activity change was inconclusive: -41.2%.
For `COc1ccc2nc(C)cc(N3CCN(S(=O)(=O)c4ccccc4F)CC3)c2c1`, the activity change was inconclusive: -36.4%.
For `Clc1ccccc1N1CCN(Cc2ccc(Br)o2)CC1`, the activity change was inactive: -20.1%.
For `N#Cc1c(NC(=O)c2ccccc2)sc2c1CCCCC2`, the activity change was inconclusive: -37%.
For `CCOC(=O)c1c(NC(=O)C2=C(C)NC(=S)NC2c2ccc(F)cc2F)sc(C)c1C` (centres undefined), the activity change was inconclusive: -40.5%.
In the case of `CC(C)[C@H](NC(=O)N1c2ccccc2NC(=O)[C@@H]1C(C)C)C(=O)N[C@@H](Cc1c[nH]c2ccccc12)C(=O)O`, the activity change is reported as inactive: 23.3%.
For `CN(C)n1cnc2ccsc2c1=O`, the activity change was inactive: 5.2%.
In the case of `Cc1ccc(CN(Cc2ccccn2)C(=O)Nc2c(F)cccc2F)cc1`, the activity change is reported as inconclusive: -39.9%.
For `CCCN1C=CC(=C2C(=O)c3ccccc3C2=O)C=C1`, the activity change was inconclusive: -41.7%.
With `COc1ccc(CCNC(=O)CN(c2ccccc2)S(=O)(=O)c2ccccc2)cc1` the activity change was inactive: 15.3%.
In the case of `CCOc1ccc(CCNC(=O)CS(=O)Cc2nc(-c3ccc(C)cc3)oc2C)cc1` (centres undefined), the activity change is reported as inconclusive: -45.7%.
For `CCOC(=O)c1sc(NC(=O)CSC(=S)N2CCN(C)CC2)nc1C`, the activity change was inconclusive: -35.5%.
